Results: the supplement of paper PMC3334620
The full ranking holds about 33,000 sequences; the median of “E-score (-0.5 to 0.5)” is about -0.016, and the highest 2% start at about 0.32. Some of the results follow.

Biological target: T1, Stp1 (UniProt B3LFK1)
T1 sequence: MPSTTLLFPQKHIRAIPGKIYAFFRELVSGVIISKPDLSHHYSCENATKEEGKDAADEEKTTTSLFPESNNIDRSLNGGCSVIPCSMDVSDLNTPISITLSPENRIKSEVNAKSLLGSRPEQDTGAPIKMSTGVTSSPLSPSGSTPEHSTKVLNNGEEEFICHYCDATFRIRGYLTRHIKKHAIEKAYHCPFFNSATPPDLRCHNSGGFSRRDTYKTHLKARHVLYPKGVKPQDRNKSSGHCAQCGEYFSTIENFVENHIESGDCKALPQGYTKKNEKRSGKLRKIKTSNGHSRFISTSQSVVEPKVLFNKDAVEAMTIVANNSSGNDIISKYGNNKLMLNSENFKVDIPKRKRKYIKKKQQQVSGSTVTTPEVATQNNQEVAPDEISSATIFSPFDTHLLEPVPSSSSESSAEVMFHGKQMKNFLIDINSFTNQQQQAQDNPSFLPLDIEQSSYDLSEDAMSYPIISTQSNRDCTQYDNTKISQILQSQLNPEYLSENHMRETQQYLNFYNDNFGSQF
Assay: PBM E-score (8-mer binding enrichment) (E-score (-0.5 to 0.5)); higher = stronger / more preferred TF binding; most listed sequences are background and not binding sites
Settings: protein concentration: 200 nM; construct: GST-full length
Summary of the method: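 PURExpress in vitro transcription/translation supplied GST-tagged yeast transcription factors, either full-length or DNA-binding domain. Applied at about 100-200 nM to universal all-10-mer Agilent arrays double-stranded by primer extension, the bound protein was detected with fluorescent anti-GST. E-scores, modified Wilcoxon-Mann-Whitney statistics, were given by the Universal PBM Analysis Suite to ungapped eight-base words pooled with their reverse complements after masliner normalisation.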

Sequence | PBM E-score
ATTACTTA | 0.0671
CTTATTTC | 0.182
CGTTACCA | -0.0254
CTAGACGC | -0.125
CTAAAGAG | -0.0751
AACCCGCG | 0.297
CTAAACAG | -0.0365
CGGTGACA | -0.0628
AACATGTG | 0.15
CATAGCAC | 0.0761
CCCCGACG | -0.319
ACGTTGCT | 0.00321
CACTGTAC | -0.238
CATAATGC | 0.0509
GCCTCCCA | -0.17
GAACGACA | -0.0397
GGCAGGAC | -0.259
GGATTAGA | -0.0751
AGATAACG | 0.0934
GAAGCTGA | 0.0825
CACTACGA | 0.117
GCACCGAC | 0.0657
GATTTACA | 0.176
AGTTTTTG | 0.0652
GGAAGTAA | -0.0379

Sequence | PBM E-score
CGCTGGAA | -0.0996
ATCACGGG | 0.00016
AAGCTCTA | -0.168
CGACGGCA | 0.299
GACATGAC | -0.23
GGTAATTA | 0.0758
CCGAATTC | 0.113
CAATCGAG | -0.175
GAAATGCA | -0.0558
GCGCTGCC | 0.101
CCTAAGCA | -0.132
GCGTGACA | 0.0835
CTGCTATA | 0.149
ACCATGTC | 0.0222
CGGTTTTA | 0.0483
CATTCCCC | -0.176
AGGCCCTG | -0.157
GAAAAAAA | 0.161
CCGGTTTC | -0.0319
CTAAGACA | -0.0409
GACAAATC | -0.0574
GAAAAGAC | 0.122
CGCCTTAC | 0.405
TCTGCTCA | -0.136
CAAAAGGG | -0.0564

Sequence | PBM E-score
ATAGATAC | 0.00676
GTACACGA | 0.136
CCGTATGA | 0.337
TTACTGAA | 0.165
GACATTCA | 0.0582
AGCAGTCC | -0.264
CGCGCTGA | -0.0138
ACACGTCG | -0.162
AATGGTTC | 0.0729
GAGTGGCC | -0.0758
GGCAAAGA | 0.19
ATGAGACA | -0.0615
GACCGAAC | -0.0124
GCATCGCC | 0.254
AGTGCGTG | 0.0595
ATATGAGC | 0.0539
GGCATACC | 0.0293
AGTAGTAC | 0.0812
CAATAAGC | 0.132
AACTGTTA | 0.0428
CCTGCGTA | 0.0256
AAGGTTAT | -0.0301
CAAAGCTG | 0.113
AACCGAGT | -0.292
ACGCGACC | -0.182

Sequence | PBM E-score
CAATCGCG | -0.0615
GGCAGGGA | -0.13
CCCAATTC | 0.12
AGTAAGGA | -0.101
TCATGGCA | -0.00249
CGTCGAGC | -0.0762
TAACCCAA | 0.119
ACTTTCCT | -0.204
CGCAAGCC | 0.136
GACGGCAA | 0.325
ATGACTTC | 0.00281
AAGGTAAG | 0.00297
TATGCGCA | -0.0223
CATTTGGC | 0.0442
GTGACTTA | -0.0523
ACGCCTGA | 0.117
CCCACGCC | -0.114
ATACGAAT | 0.0428
GTTACAGA | -0.18
ATCTCTCG | -0.159
CCTCATCA | 0.136
TCGATTCA | -0.0587
CGTAGCTC | 0.241
AAGAAGGC | 0.0892
CATTTAAG | 0.0486

Sequence | PBM E-score
GTAAAGAA | 0.129
CGAATGAC | -0.0615
GCAGTTAC | -0.0185
CATTATAG | -0.0525
CACTCTAA | -0.0164
GGGAATTA | -0.0857
GACGCCTC | 0.299
ACCGTTAC | -0.119
GTATCCCA | -0.165
GGGGTCTA | -0.144
AAAGGCAA | 0.263
ATTCGCAA | 0.0292
CACTACTA | 0.0868
CACCCATG | -0.0439
AATATAGA | 0.131
AAACTCCT | -0.195
ACAGAAAA | 0.0922
AGATCATA | 0.155
CCGCAAGA | 0.0755
GACCTTGC | -0.147
AGGTGCAC | -0.151
AAGTTTAT | 0.102
GCATAGCA | 0.00751
ACTGCTAC | -0.0776
AGTTAGTA | -0.0891

Sequence | PBM E-score
AGGATCTG | -0.218
CTTAGCCC | -0.126
AGCCGGCT | 0.00409
GACGAAAA | 0.215
GGTTTCCA | -0.255
CGTTAGCA | 0.0863
AGCATCGG | -0.0843
ACCATACA | -0.233
GCTAAGAA | -0.208
CGTAAGAG | -0.115
AGGTACCT | -0.315
CGTTCGTA | 0.241
ACGTACCG | -0.211
GAATGATC | 0.0111
CCTGAATC | -0.0491
TATGGAGA | -0.0944
CTTAGCAC | 0.024
GCTATAAA | 0.0824
GTTGTTAA | 0.109
ATCGATAA | -0.084
ACCCGTGG | -0.0825
GTTTTGGA | 0.0738
CTCGACAA | -0.0792
CAATATGG | 0.033
AACCTACG | 0.0166

Sequence | PBM E-score
ACACGGAA | 0.188
AGGCTTTA | 0.0579
CGGGCAAA | -0.0468
CAGAGCCA | -0.148
ATAGATGA | 0.0525
ATCCTTAC | 0.0152
ATATACAG | 0.127
ATGTTACA | 0.182
CCAGATTA | 0.086
ACCCCTTG | -0.422
ACTAGTTC | -0.16
GGTTAGTA | -0.0242
AAAAGTAC | 0.108
ATCTGCAG | 0.0578
CGCAGTAA | 0.0664
GCAGCTAA | 0.0715
GAAATTAC | 0.151
GCAGTCTA | -0.0152
GCATCGTA | -0.00841
AGTTCGGG | -0.0421
CACTGTTC | -0.0611
TAAGTTCA | -0.0134
CTAGCAGC | -0.166
GCGAACGC | 0.0627
CAGCTTGC | -0.108

Sequence | PBM E-score
AAGCTTTC | 0.138
ACGCCTAT | 0.0662
TCGACTCA | -0.163
CAAGCCGG | -0.00046
CGCGACCG | 0.161
GAGAGCGC | -0.0618
ACGGGCGG | -0.0632
AAGTTTCT | 0.0419
ATCCGTCA | -0.0596
TCAGCAAA | 0.0382
ATTTCCTA | 0.119
ACTAAGGA | -0.105
ATTAGAGC | 0.0403
ACATCGAT | -0.0129
TACTCAGA | 0.0701
GACACGCC | 0.105
AGCTGGTA | -0.238
CTCAGTCA | -0.21
GGAAATTA | 0.15
CTGACTGC | -0.203
GTGGAGGA | 0.0309
GAGCCAGA | -0.0879
GAGAGCCC | -0.302
ACAGTCTG | -0.292
CCGTCAAA | 0.0837

Sequence | PBM E-score
GATTTGAA | 0.113
TCGCCCGA | -0.166
CGGATAGC | 0.0299
ACATACCG | 0.0383
AGCATCAT | -0.18
AGCTCGCA | -0.077
GACCACTC | -0.127
CAAATTTC | 0.117
TACGATAA | 0.0983
AACTCGCT | -0.0606
CTAGGCAC | 0.0688
GTACCTCA | -0.0688
AAAGGAAG | 0.0109
GCCTGATA | -0.0575
CTCGCGAA | -0.0832
GCCCCTGA | -0.137
AACTTGCA | 0.0268
ACGGTTTG | -0.00944
CGGGATCC | 0.0611
